# Measurements published in the antibiotic and cytotoxicity screens of Wong et al. (2023).
# The other results are listed elsewhere or left out.
# Tested on: HSkMC (human skeletal muscle cells)
# Assay: cytotoxicity call (relative viability < 0.9)
# Conditions: 10 µM
row,SMILES,cytotoxicity call
1,CN(C)CCN1C[C@H]2OCCN(Cc3cnn(C)c3)[C@H]2C1,inactive
2,C[C@@H]1CN([C@@H](C)CO)C(=O)Cc2cc(NC(=O)Nc3ccccc3)ccc2O[C@H]1CN(C)S(=O)(=O)c1cn(C)cn1,inactive
3,CC(C)NC(=O)N(C)C[C@@H]1Oc2ccc(NS(=O)(=O)c3ccc(F)cc3)cc2CC(=O)N([C@@H](C)CO)C[C@@H]1C,inactive
4,CC(C)NC(=O)N(C)C[C@@H]1Oc2ccc(NS(=O)(=O)c3ccc(F)cc3)cc2C(=O)N([C@H](C)CO)C[C@@H]1C,inactive
5,C[C@@H]1CN([C@@H](C)CO)C(=O)c2cc(NC(=O)Nc3cccc4ccccc34)ccc2O[C@@H](C)CCCCO[C@H]1CN(C)C(=O)Cc1ccccc1,inactive
6,Cn1cnc(S(=O)(=O)N2C[C@@H](O)COC[C@@H]3O[C@H](CC(=O)N4CCN(c5ccccc5)CC4)CC[C@H]32)c1,inactive
7,OC[C@H]1O[C@@](CO)(O[C@@H]2O[C@H](CO)[C@@H](O)[C@H](O)[C@H]2O)[C@@H](O[C@@H]2O[C@H](CO)[C@@H](O)[C@H](O)[C@H]2O)[C@@H]1O,inactive
8,CC(=O)N(C)[C@H]1C(=O)C(=O)c2ccccc2C1=O,inactive

# Tested on: HepG2
# Assay: cytotoxicity call (relative viability < 0.9)
# Conditions: 10 µM
row,SMILES,cytotoxicity call
1,Cc1cc[nH]c(=O)c1,inactive
2,C[C@@H]1C[C@H](O)/C=C/[C@H](O)[C@@H](O)CC(=O)O1,inactive
3,COC(=O)Cc1csc(CC(N)=O)n1,active
4,C[C@@H]1CCCCO[C@@H](CN(C)C(=O)c2ccccc2)[C@H](C)CN([C@H](C)CO)C(=O)c2cc(NC(=O)Nc3ccc4c(c3)OCO4)ccc2O1,inactive
5,C[C@@H]1CCCCO[C@@H](CN(C)C(=O)c2ccccc2)[C@H](C)CN([C@@H](C)CO)C(=O)c2cc(NC(=O)Nc3ccc4c(c3)OCO4)ccc2O1,inactive
6,O=C(C[C@H]1CC[C@@H](NS(=O)(=O)c2ccc(F)cc2)[C@H](CO)O1)N1CCC(Cc2ccccc2)CC1,inactive
7,NNC(=O)[C@H]1CCCNC1=O,active
8,CC(C)(C)[S@@](=O)N1Cc2cc(C(=O)NCc3ccncc3)nc(-c3cccc(-c4cccc(C#N)c4)c3)c2[C@H]1CCO,inactive
9,COC(=O)C[C@H]1CC[C@H]2[C@@H](COC[C@H](O)CN2S(=O)(=O)c2cn(C)cn2)O1,inactive
10,COCC(=O)N1C[C@H](C)[C@@H](OC)CN(C)C(=O)c2cc(NC(=O)Nc3cccc(F)c3)ccc2OC[C@H]1C,inactive
11,C[C@@H]1CN([C@@H](C)CO)C(=O)Cc2cc(NC(=O)C3CC3)ccc2O[C@@H]1CN(C)C(=O)NC1CCCCC1,inactive
12,N[C@]12CC[C@](C(=O)O)(CC1)C2,inactive
13,N[C@@H](C(=O)O)C1=CCC=CC1,inactive
14,C[C@@H]1CCCCO[C@@H](CN(C)CC2CCCCC2)[C@H](C)CN([C@@H](C)CO)C(=O)c2cc(NC(=O)NC3CCCCC3)ccc2O1,inactive
15,C[C@H](CO)N1C[C@H](C)[C@H](CN(C)C(=O)Cc2ccccc2)OCCCC[C@H](C)Oc2ccc(NC(=O)c3ccccc3)cc2C1=O,inactive
16,Cc1noc(C)c1NC(=O)N(C)C[C@H]1Oc2ccc(NC(=O)CCCN(C)C)cc2C(=O)N([C@@H](C)CO)C[C@H]1C,inactive
17,C[C@@H]1CN([C@@H](C)CO)C(=O)c2cc(NC(=O)c3ccncc3)ccc2O[C@H]1CN(C)Cc1ccncc1,inactive
18,CCO[C@H]1OC(C(=O)N2CCN(Cc3ccc4c(c3)OCO4)CC2)=C[C@@H](C)[C@@H]1CCCOC(=O)NCCCCCC(=O)NO,inactive
19,CN1CC(=O)N=C1NC(=O)[C@H]1CCCN(S(=O)(=O)c2ccc3c(c2)oc(=O)n3C)C1,inactive
20,O[C@H]1CCCC[C@@H]1O,inactive

row,SMILES,cytotoxicity call
1,COC(=O)[C@@H](C)N(C#N)c1nc(C)cc(C)n1,inactive
2,C[C@H](O)C#Cc1cnc2c(c1)C(=O)N([C@@H](C)CO)C[C@@H](C)[C@H](CN(C)C(=O)Nc1ccc(C(F)(F)F)cc1)O2,inactive
3,C[C@H](CO)N1C[C@H](C)[C@H](CN(C)C(=O)Nc2ccc(F)cc2)OCCCC[C@H](C)Oc2ccc(NS(=O)(=O)c3ccc(Cl)cc3)cc2C1=O,active
4,COc1ccc(NC(=O)N(C)C[C@@H]2Oc3ccc(NS(=O)(=O)c4c(C)noc4C)cc3CC(=O)N([C@@H](C)CO)C[C@@H]2C)cc1,inactive
5,C[C@@H]1CN([C@@H](C)CO)C(=O)Cc2cc(NC(=O)Nc3cccc4ccccc34)ccc2O[C@@H]1CN(C)CC1CCCCC1,active
6,CC[C@H]1OC(=O)C[C@@H](O)[C@H](C)[C@@H](O[C@@H]2O[C@H](C)[C@@H](O)[C@H](N(C)C)[C@H]2O)[C@@H](CCN2C[C@H](C)C[C@H](C)C2)C[C@@H](C)C(=O)/C=C/C(C)=C/[C@@H]1CO[C@@H]1O[C@H](C)[C@@H](O)[C@@H](OC)[C@H]1OC,inactive
7,COc1ccc(S(=O)(=O)N[C@@H]2CC[C@@H](CC(=O)N3CCC(Cc4ccccc4)CC3)O[C@H]2CO)cc1,inactive
8,C[C@H](CO)N1C[C@H](C)[C@@H](CN(C)C)OCCCC[C@H](C)Oc2ccc(NC(=O)Nc3cccc4ccccc34)cc2C1=O,inactive
9,C[C@@H]1CN([C@@H](C)CO)C(=O)c2cc(NC(=O)Cc3ccccc3)ccc2O[C@@H](C)CCCCO[C@H]1CN(C)Cc1ccc2c(c1)OCO2,inactive
10,COc1cccc(NC(=O)N(C)C[C@H]2Oc3cc(C#Cc4ccncc4)ccc3S(=O)(=O)N([C@@H](C)CO)C[C@H]2C)c1,active
11,CCC(=O)Nc1ccc2c(c1)OC[C@H](C)N(C(=O)CN1CCOCC1)C[C@@H](C)[C@H](OC)CN(C)C2=O,inactive
12,CCCNC(=O)N1C[C@@H](O)COC[C@@H]2O[C@H](CC(=O)N3CCOCC3)CC[C@H]21,inactive
13,CN(C)CCN1C[C@H]2OCCN(Cc3cnn(C)c3)[C@H]2C1,inactive
14,C[C@@H]1CN([C@@H](C)CO)C(=O)Cc2cc(NC(=O)Nc3ccccc3)ccc2O[C@H]1CN(C)S(=O)(=O)c1cn(C)cn1,inactive
15,CC(C)NC(=O)N(C)C[C@@H]1Oc2ccc(NS(=O)(=O)c3ccc(F)cc3)cc2CC(=O)N([C@@H](C)CO)C[C@@H]1C,inactive
16,CC(C)NC(=O)N(C)C[C@@H]1Oc2ccc(NS(=O)(=O)c3ccc(F)cc3)cc2C(=O)N([C@H](C)CO)C[C@@H]1C,inactive
17,C[C@@H]1CN([C@@H](C)CO)C(=O)c2cc(NC(=O)Nc3cccc4ccccc34)ccc2O[C@@H](C)CCCCO[C@H]1CN(C)C(=O)Cc1ccccc1,inactive
18,Cn1cnc(S(=O)(=O)N2C[C@@H](O)COC[C@@H]3O[C@H](CC(=O)N4CCN(c5ccccc5)CC4)CC[C@H]32)c1,inactive
19,OC[C@H]1O[C@@](CO)(O[C@@H]2O[C@H](CO)[C@@H](O)[C@H](O)[C@H]2O)[C@@H](O[C@@H]2O[C@H](CO)[C@@H](O)[C@H](O)[C@H]2O)[C@@H]1O,inactive
20,CC(=O)N(C)[C@H]1C(=O)C(=O)c2ccccc2C1=O,inactive
